Assay results as given in publication PMC8185084.
These are yes or no findings as the source states them, for the method shown. In cells and extracts the contact can be indirect. Some results given as binding are weak or reduced against the parent protein; the word gives no strength. Tags and fused reporters may be left off the sequences shown.

By UniProt entry, the sequences of proteins in these tests, tags left out.
UniProt Q60749: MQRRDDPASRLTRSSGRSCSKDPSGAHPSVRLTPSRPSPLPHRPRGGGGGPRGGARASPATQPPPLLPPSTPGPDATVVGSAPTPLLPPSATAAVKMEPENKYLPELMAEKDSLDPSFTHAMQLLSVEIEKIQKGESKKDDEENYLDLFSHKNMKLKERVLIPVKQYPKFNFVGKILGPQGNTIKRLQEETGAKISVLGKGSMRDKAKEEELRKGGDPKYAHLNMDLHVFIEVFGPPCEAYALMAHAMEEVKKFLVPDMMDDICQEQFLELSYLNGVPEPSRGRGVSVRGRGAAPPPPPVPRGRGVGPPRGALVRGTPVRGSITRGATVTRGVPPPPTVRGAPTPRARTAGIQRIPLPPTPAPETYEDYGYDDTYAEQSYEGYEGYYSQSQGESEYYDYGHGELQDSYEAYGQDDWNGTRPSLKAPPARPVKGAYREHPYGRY

Target: hemagglutinin (HA)-tagged Sam68, full length (UniProt Q60749)
Assay: co-IP; 293T cells co-transfected with Flag-CRTC2 and HA-tagged WT Sam68 or truncation mutants; 48 h later Sam68 immunoprecipitated with anti-HA, CRTC2 detected with anti-Flag

B1: FLAG-tagged CRTC2 (protein, UniProt Q3U182 1-692)
chain: MATSGANGPGSATASASNPRKFSEKIALQKQRQAEETAAFEEVMMDIGSTRLQAQKLRLAYTRSSHYGGSLPNVNQIGCGLAEFQSPLHSPLDSSRSTRHHGLVERVQRDARRMVSPLRRYPRHIDSSPYSPAYLSPPPESGWRRMMPWGNLPAEKGQLFRLPSALNRTSSDSALHTSVMNPNPQDTYPGPTPPSVLPSRRGGGFLDGEMDAKVPAIEENVVDDKHLLKPWDAKKLSSSSSRPRSCEVPGINIFPSPDQPANVPVLPPAMNTGGSLPDLTNLHFPPPLPTPLDPEETVYPSLSGGNSTTNLTHTMTHLGISGGLGLGPSYDVPGLHSPLSHPSLQSSLSNPNLQASLSSPQPQLQGSHSHPSLPASSLAHHALPTTSLGHPSLSAPALSSSSSSSSTSSPVLSAPPYPASTPGASPRHRRVPLSPLSLPAGPADARRSQQQLPKQFSPTMSPTLSSITQGVPLDTSKLPTDQRLPPYPYSPPSLVIPTHPPTPKSLQQLPSQACLVQPSGGQPPGRQPHYGALYPPGSSGHGQQPYHRPINDFSLGNLEQFNMESPSTSLVLDPPAFSEGPGFLGSEGSMSGPQDPHVLNHQNLTHCSRHGSGPNIILTGDSSPGFSKEIAAALAGVPGFEVSASGLELGLGLEDELRMEPLGLEGLTMLSDPCALLPDPAVEDSFRSDRLQ
binding: binds
